What all share (assay): co-IP; transiently transfected HEK293T/HEK293FT cells; CoIP buffer 40 mM HEPES, 120 mM NaCl, 10 mM MgCl2, 0.3% CHAPS, pH 7.4; 3xflag beads 2-4 h; western blot
On the technique in general: A western blot detects proteins with antibodies after separation by electrophoresis.

Sequences of proteins named here, by UniProt entry; tags and fusion partners are left off. A change or cut given only in a name is not applied to a line headed by its entry. A line that says so, or that is headed by a name, gives the form on record, which may keep a tag or linker.
UniProt Q2PPJ7: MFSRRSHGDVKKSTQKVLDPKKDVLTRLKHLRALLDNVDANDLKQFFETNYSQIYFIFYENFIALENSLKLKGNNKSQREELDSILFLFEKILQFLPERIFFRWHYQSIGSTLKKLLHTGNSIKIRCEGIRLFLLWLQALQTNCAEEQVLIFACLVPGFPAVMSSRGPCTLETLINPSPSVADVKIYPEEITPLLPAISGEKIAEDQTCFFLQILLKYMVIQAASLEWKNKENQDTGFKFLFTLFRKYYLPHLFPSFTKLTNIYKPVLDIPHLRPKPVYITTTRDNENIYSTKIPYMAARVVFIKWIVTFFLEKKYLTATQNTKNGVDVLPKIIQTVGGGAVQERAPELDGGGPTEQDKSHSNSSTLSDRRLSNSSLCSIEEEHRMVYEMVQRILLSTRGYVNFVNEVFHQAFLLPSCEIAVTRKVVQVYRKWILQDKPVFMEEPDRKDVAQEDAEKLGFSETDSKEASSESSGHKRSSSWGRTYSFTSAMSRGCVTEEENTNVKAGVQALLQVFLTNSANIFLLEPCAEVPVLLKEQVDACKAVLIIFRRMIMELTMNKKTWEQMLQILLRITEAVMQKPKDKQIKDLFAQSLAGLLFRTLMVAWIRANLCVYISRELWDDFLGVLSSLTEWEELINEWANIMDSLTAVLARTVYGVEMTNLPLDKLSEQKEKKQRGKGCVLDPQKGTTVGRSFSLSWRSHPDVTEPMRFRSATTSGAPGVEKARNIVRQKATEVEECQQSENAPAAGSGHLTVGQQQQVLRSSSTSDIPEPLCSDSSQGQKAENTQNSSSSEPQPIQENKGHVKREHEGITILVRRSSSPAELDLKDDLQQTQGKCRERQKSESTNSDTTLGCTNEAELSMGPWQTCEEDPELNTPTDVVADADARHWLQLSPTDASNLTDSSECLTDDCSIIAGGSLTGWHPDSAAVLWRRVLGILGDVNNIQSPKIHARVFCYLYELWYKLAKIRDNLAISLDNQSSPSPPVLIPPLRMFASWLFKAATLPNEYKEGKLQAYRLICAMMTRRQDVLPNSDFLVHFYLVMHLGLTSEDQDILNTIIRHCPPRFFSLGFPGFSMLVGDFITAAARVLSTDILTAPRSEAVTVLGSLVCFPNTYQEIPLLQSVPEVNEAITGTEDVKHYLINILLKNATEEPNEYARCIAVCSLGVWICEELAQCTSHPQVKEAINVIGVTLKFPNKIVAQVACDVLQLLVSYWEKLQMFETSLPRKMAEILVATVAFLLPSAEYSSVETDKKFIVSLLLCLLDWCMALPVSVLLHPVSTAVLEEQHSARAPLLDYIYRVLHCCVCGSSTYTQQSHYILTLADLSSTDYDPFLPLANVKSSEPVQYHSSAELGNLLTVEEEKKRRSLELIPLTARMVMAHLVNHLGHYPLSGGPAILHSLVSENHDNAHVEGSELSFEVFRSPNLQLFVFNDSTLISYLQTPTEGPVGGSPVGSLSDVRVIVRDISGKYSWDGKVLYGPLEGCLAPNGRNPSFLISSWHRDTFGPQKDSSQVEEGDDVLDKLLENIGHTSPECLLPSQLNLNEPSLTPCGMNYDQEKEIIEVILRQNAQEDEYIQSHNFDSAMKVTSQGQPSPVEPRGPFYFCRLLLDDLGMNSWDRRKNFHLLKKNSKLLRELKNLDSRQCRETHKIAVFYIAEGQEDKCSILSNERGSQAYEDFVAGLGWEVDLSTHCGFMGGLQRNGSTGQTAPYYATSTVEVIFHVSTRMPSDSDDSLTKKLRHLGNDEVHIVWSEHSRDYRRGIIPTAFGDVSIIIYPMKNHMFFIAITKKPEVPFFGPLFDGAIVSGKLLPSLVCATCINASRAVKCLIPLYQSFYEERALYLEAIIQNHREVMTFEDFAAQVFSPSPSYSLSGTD
RGα2^Δhug (lacking aa 1498-1593) (Q2PPJ7, form named): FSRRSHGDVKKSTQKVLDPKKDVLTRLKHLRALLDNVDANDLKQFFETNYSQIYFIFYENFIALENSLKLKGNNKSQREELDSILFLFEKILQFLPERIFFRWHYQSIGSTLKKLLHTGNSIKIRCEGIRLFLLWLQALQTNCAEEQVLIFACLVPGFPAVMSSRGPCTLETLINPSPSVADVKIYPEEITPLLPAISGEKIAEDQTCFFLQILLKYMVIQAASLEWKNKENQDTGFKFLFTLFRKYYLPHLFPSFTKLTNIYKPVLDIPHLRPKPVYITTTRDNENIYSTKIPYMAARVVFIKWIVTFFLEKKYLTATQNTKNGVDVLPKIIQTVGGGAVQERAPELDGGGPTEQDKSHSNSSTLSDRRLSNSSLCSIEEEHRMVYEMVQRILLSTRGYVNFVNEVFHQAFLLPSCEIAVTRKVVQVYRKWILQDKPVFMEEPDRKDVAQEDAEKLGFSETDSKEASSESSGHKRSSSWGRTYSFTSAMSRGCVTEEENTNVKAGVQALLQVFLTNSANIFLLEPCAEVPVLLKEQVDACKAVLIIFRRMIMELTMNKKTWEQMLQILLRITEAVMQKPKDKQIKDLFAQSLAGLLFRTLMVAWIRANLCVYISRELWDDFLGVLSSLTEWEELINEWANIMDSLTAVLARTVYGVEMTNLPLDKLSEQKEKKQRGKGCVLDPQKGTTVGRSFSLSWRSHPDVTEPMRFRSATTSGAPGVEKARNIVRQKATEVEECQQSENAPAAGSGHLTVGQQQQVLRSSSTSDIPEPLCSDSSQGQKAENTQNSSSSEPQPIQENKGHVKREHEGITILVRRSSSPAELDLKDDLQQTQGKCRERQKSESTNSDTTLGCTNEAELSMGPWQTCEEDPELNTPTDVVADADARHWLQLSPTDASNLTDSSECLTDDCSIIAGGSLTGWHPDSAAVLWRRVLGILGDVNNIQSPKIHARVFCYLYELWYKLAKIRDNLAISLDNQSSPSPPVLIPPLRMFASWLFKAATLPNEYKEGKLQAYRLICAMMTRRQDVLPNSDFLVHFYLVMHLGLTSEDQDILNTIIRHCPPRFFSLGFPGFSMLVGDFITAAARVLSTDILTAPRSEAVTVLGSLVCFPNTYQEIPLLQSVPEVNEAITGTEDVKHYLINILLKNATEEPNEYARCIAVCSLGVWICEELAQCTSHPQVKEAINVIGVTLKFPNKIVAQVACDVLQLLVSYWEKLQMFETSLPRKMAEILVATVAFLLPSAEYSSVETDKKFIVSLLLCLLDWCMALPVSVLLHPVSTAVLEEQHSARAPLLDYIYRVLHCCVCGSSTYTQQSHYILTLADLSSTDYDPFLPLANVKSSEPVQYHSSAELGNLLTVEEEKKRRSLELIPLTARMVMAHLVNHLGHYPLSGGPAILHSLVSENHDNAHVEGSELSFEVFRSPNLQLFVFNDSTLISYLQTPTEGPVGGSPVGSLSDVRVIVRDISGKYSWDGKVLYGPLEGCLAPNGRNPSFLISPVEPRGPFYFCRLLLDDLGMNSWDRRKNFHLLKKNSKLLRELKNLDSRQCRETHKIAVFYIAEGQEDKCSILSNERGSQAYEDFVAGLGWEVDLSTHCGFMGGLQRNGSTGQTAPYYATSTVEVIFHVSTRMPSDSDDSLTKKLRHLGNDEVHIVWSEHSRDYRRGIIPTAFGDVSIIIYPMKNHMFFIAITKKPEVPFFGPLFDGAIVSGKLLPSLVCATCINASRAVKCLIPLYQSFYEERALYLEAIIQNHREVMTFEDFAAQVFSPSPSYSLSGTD

The target of assay [1] is RGα2^Δhug (lacking aa 1498-1593) (UniProt Q2PPJ7).
In assay [2] the target is RGβ full-length (RGβ^fl), transiently expressed in HEK293 cells for co-immunoprecipitation (UniProt Q86X10).
For assay [3], the target named is RGα2 full-length (RGα2^fl), transiently expressed in HEK293 cells for co-immunoprecipitation (UniProt Q2PPJ7).
For the next assay, the target named is RGβ^D1 (W65R) (UniProt Q86X10).
Assay [4] has as its target RGβ^D3 (V29E, V33Q, V37E) (UniProt Q86X10).

No constants are given. Whether binding was seen depends on the method and setting. In cells and extracts the contact can be indirect. Some binding calls cover weakened binding; strength is not graded here.

B1: RGβ full-length (RGβ^fl), transiently expressed in HEK293 cells for co-immunoprecipitation (protein, UniProt Q86X10 1-1494)
chain: MYSEWRSLHLVIQNDQGHTSVLHSYPESVGREVANAVVRPLGQVLGTPSVAGSENLLKTDKEVKWTMEVICYGLTLPLDGETVKYCVDVYTDWIMALVLPKDSIPLPVIKEPNQYVQTILKHLQNLFVPRQEQGSSQIRLCLQVLRAIQKLARESSLMARETWEVLLLFLLQINDILLAPPTVQGGIAENLAEKLIGVLFEVWLLACTRCFPTPPYWKTAKEMVANWRHHPAVVEQWSKVICALTSRLLRFTYGPSFPAFKVPDEDASLIPPEMDNECVAQTWFRFLHMLSNPVDLSNPAIISSTPKFQEQFLNVSGMPQELNQYPCLKHLPQIFFRAMRGISCLVDAFLGISRPRSDSAPPTPVNRLSMPQSAAVSTTPPHNRRHRAVTVNKATMKTSTVSTAHASKVQHQTSSTSPLSSPNQTSSEPRPLPAPRRPKVNSILNLFGSWLFDAAFVHCKLHNGINRDSSMTAITTQASMEFRRKGSQMSTDTMVSNPMFDASEFPDNYEAGRAEACGTLCRIFCSKKTGEEILPAYLSRFYMLLIQGLQINDYVCHPVLASVILNSPPLFCCDLKGIDVVVPYFISALETILPDRELSKFKSYVNPTELRRSSINILLSLLPLPHHFGTVKSEVVLEGKFSNDDSSSYDKPITFLSLKLRLVNILIGALQTETDPNNTQMILGAMLNIVQDSALLEAIGCQMEMGGGENNLKSHSRTNSGISSASGGSTEPTTPDSERPAQALLRDYALNTDSAAGLLIRSIHLVTQRLNSQWRQDMSISLAALELLSGLAKVKVMVDSGDRKRAISSVCTYIVYQCSRPAPLHSRDLHSMIVAAFQCLCVWLTEHPDMLDEKDCLKEVLEIVELGISGSKSKNNEQEVKYKGDKEPNPASMRVKDAAEATLTCIMQLLGAFPSPSGPASPCSLVNETTLIKYSRLPTINKHSFRYFVLDNSVILAMLEQPLGNEQNDFFPSVTVLVRGMSGRLAWAQQLCLLPRGAKANQKLFVPEPRPVPKNDVGFKYSVKHRPFPEEVDKIPFVKADLSIPDLHEIVTEELEERHEKLRSGMAQQIAYEIHLEQQSEEELQKRSFPDPVTDCKPPPPAQEFQTARLFLSHFGFLSLEALKEPANSRLPPHLIALDSTIPGFFDDIGYLDLLPCRPFDTVFIFYMKPGQKTNQEILKNVESSRTVQPHFLEFLLSLGWSVDVGRHPGWTGHVSTSWSINCCDDGEGSQQEVISSEDIGASIFNGQKKVLYYADALTEIAFVVPSPVESLTDSLESNISDQDSDSNMDLMPGILKQPSLTLELFPNHTDNLNSSQRLSPSSRMRKLPQGRPVPPLGPETRVSVVWVERYDDIENFPLSELMTEISTGVETTANSSTSLRSTTLEKEVPVIFIHPLNTGLFRIKIQGATGKFNMVIPLVDGMIVSRRALGFLVRQTVINICRRKRLESDSYSPPHVRRKQKITDIVNKYRNKQLEPEFYTSLFQEVGLKNCSS
Take B1: the binding entry in assay [1], in assay [2] and in assay [3] was “binds” in each case.

B2: RGβ^D1 (W65R) (protein, UniProt Q86X10 1-1494)
chain: MYSEWRSLHLVIQNDQGHTSVLHSYPESVGREVANAVVRPLGQVLGTPSVAGSENLLKTDKEVKRTMEVICYGLTLPLDGETVKYCVDVYTDWIMALVLPKDSIPLPVIKEPNQYVQTILKHLQNLFVPRQEQGSSQIRLCLQVLRAIQKLARESSLMARETWEVLLLFLLQINDILLAPPTVQGGIAENLAEKLIGVLFEVWLLACTRCFPTPPYWKTAKEMVANWRHHPAVVEQWSKVICALTSRLLRFTYGPSFPAFKVPDEDASLIPPEMDNECVAQTWFRFLHMLSNPVDLSNPAIISSTPKFQEQFLNVSGMPQELNQYPCLKHLPQIFFRAMRGISCLVDAFLGISRPRSDSAPPTPVNRLSMPQSAAVSTTPPHNRRHRAVTVNKATMKTSTVSTAHASKVQHQTSSTSPLSSPNQTSSEPRPLPAPRRPKVNSILNLFGSWLFDAAFVHCKLHNGINRDSSMTAITTQASMEFRRKGSQMSTDTMVSNPMFDASEFPDNYEAGRAEACGTLCRIFCSKKTGEEILPAYLSRFYMLLIQGLQINDYVCHPVLASVILNSPPLFCCDLKGIDVVVPYFISALETILPDRELSKFKSYVNPTELRRSSINILLSLLPLPHHFGTVKSEVVLEGKFSNDDSSSYDKPITFLSLKLRLVNILIGALQTETDPNNTQMILGAMLNIVQDSALLEAIGCQMEMGGGENNLKSHSRTNSGISSASGGSTEPTTPDSERPAQALLRDYALNTDSAAGLLIRSIHLVTQRLNSQWRQDMSISLAALELLSGLAKVKVMVDSGDRKRAISSVCTYIVYQCSRPAPLHSRDLHSMIVAAFQCLCVWLTEHPDMLDEKDCLKEVLEIVELGISGSKSKNNEQEVKYKGDKEPNPASMRVKDAAEATLTCIMQLLGAFPSPSGPASPCSLVNETTLIKYSRLPTINKHSFRYFVLDNSVILAMLEQPLGNEQNDFFPSVTVLVRGMSGRLAWAQQLCLLPRGAKANQKLFVPEPRPVPKNDVGFKYSVKHRPFPEEVDKIPFVKADLSIPDLHEIVTEELEERHEKLRSGMAQQIAYEIHLEQQSEEELQKRSFPDPVTDCKPPPPAQEFQTARLFLSHFGFLSLEALKEPANSRLPPHLIALDSTIPGFFDDIGYLDLLPCRPFDTVFIFYMKPGQKTNQEILKNVESSRTVQPHFLEFLLSLGWSVDVGRHPGWTGHVSTSWSINCCDDGEGSQQEVISSEDIGASIFNGQKKVLYYADALTEIAFVVPSPVESLTDSLESNISDQDSDSNMDLMPGILKQPSLTLELFPNHTDNLNSSQRLSPSSRMRKLPQGRPVPPLGPETRVSVVWVERYDDIENFPLSELMTEISTGVETTANSSTSLRSTTLEKEVPVIFIHPLNTGLFRIKIQGATGKFNMVIPLVDGMIVSRRALGFLVRQTVINICRRKRLESDSYSPPHVRRKQKITDIVNKYRNKQLEPEFYTSLFQEVGLKNCSS
As to B2, the figures for the binding entry (in the assay with RGβ^D1 (W65R); in assay [3]) were “no binding” and “binds”, respectively.

B3: RGβ^D3 (V29E, V33Q, V37E) (protein, UniProt Q86X10 1-1494)
chain: MYSEWRSLHLVIQNDQGHTSVLHSYPESEGREQANAEVRPLGQVLGTPSVAGSENLLKTDKEVKWTMEVICYGLTLPLDGETVKYCVDVYTDWIMALVLPKDSIPLPVIKEPNQYVQTILKHLQNLFVPRQEQGSSQIRLCLQVLRAIQKLARESSLMARETWEVLLLFLLQINDILLAPPTVQGGIAENLAEKLIGVLFEVWLLACTRCFPTPPYWKTAKEMVANWRHHPAVVEQWSKVICALTSRLLRFTYGPSFPAFKVPDEDASLIPPEMDNECVAQTWFRFLHMLSNPVDLSNPAIISSTPKFQEQFLNVSGMPQELNQYPCLKHLPQIFFRAMRGISCLVDAFLGISRPRSDSAPPTPVNRLSMPQSAAVSTTPPHNRRHRAVTVNKATMKTSTVSTAHASKVQHQTSSTSPLSSPNQTSSEPRPLPAPRRPKVNSILNLFGSWLFDAAFVHCKLHNGINRDSSMTAITTQASMEFRRKGSQMSTDTMVSNPMFDASEFPDNYEAGRAEACGTLCRIFCSKKTGEEILPAYLSRFYMLLIQGLQINDYVCHPVLASVILNSPPLFCCDLKGIDVVVPYFISALETILPDRELSKFKSYVNPTELRRSSINILLSLLPLPHHFGTVKSEVVLEGKFSNDDSSSYDKPITFLSLKLRLVNILIGALQTETDPNNTQMILGAMLNIVQDSALLEAIGCQMEMGGGENNLKSHSRTNSGISSASGGSTEPTTPDSERPAQALLRDYALNTDSAAGLLIRSIHLVTQRLNSQWRQDMSISLAALELLSGLAKVKVMVDSGDRKRAISSVCTYIVYQCSRPAPLHSRDLHSMIVAAFQCLCVWLTEHPDMLDEKDCLKEVLEIVELGISGSKSKNNEQEVKYKGDKEPNPASMRVKDAAEATLTCIMQLLGAFPSPSGPASPCSLVNETTLIKYSRLPTINKHSFRYFVLDNSVILAMLEQPLGNEQNDFFPSVTVLVRGMSGRLAWAQQLCLLPRGAKANQKLFVPEPRPVPKNDVGFKYSVKHRPFPEEVDKIPFVKADLSIPDLHEIVTEELEERHEKLRSGMAQQIAYEIHLEQQSEEELQKRSFPDPVTDCKPPPPAQEFQTARLFLSHFGFLSLEALKEPANSRLPPHLIALDSTIPGFFDDIGYLDLLPCRPFDTVFIFYMKPGQKTNQEILKNVESSRTVQPHFLEFLLSLGWSVDVGRHPGWTGHVSTSWSINCCDDGEGSQQEVISSEDIGASIFNGQKKVLYYADALTEIAFVVPSPVESLTDSLESNISDQDSDSNMDLMPGILKQPSLTLELFPNHTDNLNSSQRLSPSSRMRKLPQGRPVPPLGPETRVSVVWVERYDDIENFPLSELMTEISTGVETTANSSTSLRSTTLEKEVPVIFIHPLNTGLFRIKIQGATGKFNMVIPLVDGMIVSRRALGFLVRQTVINICRRKRLESDSYSPPHVRRKQKITDIVNKYRNKQLEPEFYTSLFQEVGLKNCSS
On to B3, for which the binding entry is reported as “no binding” in assay [4] and “binds” in assay [3].

(Values after PMC12311180.)
